The values below come from ChEMBL document CHEMBL4888484, “Replenishing the malaria drug discovery pipeline: Screening and hit evaluation of the MMV Hit Generation Library 1 (HGL1) against asexual blood stage Plasmodium falciparum ,using a nano luciferase reporter read-out” (2022).

Each structure is given as a SMILES string. The campaign covered roughly 150,000 compounds. About 540 (0.36%) showed an effect of 50% or more. Some of the results follow.

The test system of this experiment is Plasmodium falciparum. As to the kind of experiment: Primary screen in NF54 nanoGlo assay, in single point, at 2uM, 72h; a lower Z score goes with more inhibition. The note with it: timepoint 72 hour. It counts as functional, Erythrocyte.
Take `Cc1cc(CC(C)NC2CCCc3ccc(O)cc32)n[nH]1` (stereo not drawn): the “% Inhibition” value is listed as -4% and the Z score was determined as 0.73.
The like results for `C[C@@H](Cc1cccs1)N(C)CCN1C(=O)CCC1=O` were, in that order, 31% and -3.49.
For `Cc1ncc(CN(C)C(=O)C2C(C)(C)C2(C)C)s1`, the “% Inhibition” value is -15% and the Z score turned out to be 2.6.
Consider `COC1(CN2CCOC3CCCCC32)CCC1` (stereo not drawn), for which the “% Inhibition” value is -12% and the Z score is reported as 1.66.
Regarding `CC(NCCCc1cnn(C)c1)C(c1ccccc1)N(C)C` (stereo not drawn), the “% Inhibition” value was -5% and the Z score is 1.01.
In the case of `NC(=O)CCC(=O)N1C[C@H](c2cccc(F)c2F)[C@@H]2[C@H]1C1CCN2CC1`, the “% Inhibition” value worked out at 1% and the Z score is recorded as -0.14.
The like results for `Cc1nnc(CC(=O)N2C3CCC2c2ccccc23)o1` were, in that order, -2% and 0.32.
On the same counts, the results for `CCCc1c(C(=O)Nc2ccc(O)cc2O)cnn1C1CCCC1` are 7% and -0.88.
In the case of `CC1CC(C)CN(S(=O)(=O)c2ccc3c(c2)N(CC(=O)N2CCC4(CC2)OCCO4)C(=O)CO3)C1` (stereo not drawn), the “% Inhibition” value is on record as 5% and the Z score is reported as -0.79.
Consider `CN(C)C(=O)CN1C[C@H]2CC[C@@H](C1)N(Cc1c(Cl)cncc1Cl)C2`, for which the “% Inhibition” value is -3% and the Z score is listed as 0.56.
Turning to `CCCS(=O)(=O)N1C[C@@H]2C[C@H](C1)c1c(-c3ccc(OC(F)(F)F)cc3)ccc(=O)n1C2`, the “% Inhibition” value was -3% and the Z score amounted to 0.42.
Regarding `CN1CCN(c2cc3c(cc2F)no[n+]3[O-])CC1`, the “% Inhibition” value is listed as -12% and the Z score was found to be 1.35.
For the compound `COc1ccccc1C(N)=NOCC(=O)N1CCC2(CC1)OCCO2`, the “% Inhibition” value is reported as 1% and the Z score was -0.18.
The like results for `Cc1nc(CN2C[C@@H](CO)[C@H](c3ccc(Cl)cc3)C2)co1` were, in that order, 4% and -0.83.
`CCc1ccccc1S(=O)(=O)N1[C@@H]2CC[C@H]1Cc1nc(C)[nH]c(=O)c1C2`: the “% Inhibition” value is reported as -8% and the Z score came out at 1.26.
Take `O=C(Oc1ccccc1)N(c1ccc2oc(=O)sc2c1)S(=O)(=O)c1cccc2cccnc12`: the “% Inhibition” value was -47% and the Z score is given as 6.29.
For the compound `Cc1cccn2cc(CN3C[C@@H]4[C@@H]5CC[C@@H](C5)[C@@H]4C3)nc12`, the “% Inhibition” value is listed as -10% and the Z score is 1.86.
For the compound `c1ccc([C@@H]2CN(Cc3nccs3)[C@@H]3C4CCN(CC4)[C@@H]32)cc1`, the “% Inhibition” value is reported as -16% and the Z score is recorded as 2.42.
In the case of `O=C(C1CCC1)N1[C@H]2CC[C@@H]1c1cnc(-c3ccccc3)nc1C2`, the “% Inhibition” value was -7% and the Z score was 0.95.
Turning to `O=C(Cc1noc2ccccc12)N1CC2CCCC(C1)N2`, the “% Inhibition” value amounted to 37% and the Z score is -1.56.
On to `Cc1ccccc1C[C@H](C)NCCCn1ccnc1`, for which the “% Inhibition” value was -5% and the Z score was determined as 0.42.
The like results for `O=C(c1cnccn1)N1C[C@@H]2C[C@H](C1)c1c(-c3ccccc3)ccc(=O)n1C2` were, in that order, -13% and 2.48.
For `c1ccc(CN2CCNC[C@H]2C2CCC2)cc1`, the “% Inhibition” value is on record as -13% and the Z score came to 2.52.
In the case of `C[C@@H](Cn1cncn1)NCc1noc(-c2ccco2)n1`, the “% Inhibition” value is -18% and the Z score came out at 2.18.
For `O=C1CN[C@@H](c2ccc(Cl)cc2)c2cc(Br)ccc2N1`, the “% Inhibition” value is -4% and the Z score was 0.64.
The like results for `CC(=O)C1(c2ccccc2)CCN(C(=O)N2CCN(C)CC2)CC1` were, in that order, -5% and 0.97.
As for `Cc1ccc(CNC(=O)CN2C[C@@H]3CC[C@H]2C3)c2cccnc12`, the “% Inhibition” value was -7% and the Z score was 1.29.
For the compound `O=S(=O)(F)c1ccc(S(=O)(=O)N2CC3CC(O)C3C2)cc1` (stereo not drawn), the “% Inhibition” value is 1% and the Z score is on record as -0.15.
As for `COCCN[C@H](c1cncc(Br)c1)C1CC1`, the “% Inhibition” value came out at 6% and the Z score is reported as -0.6.
On to `N#Cc1ccc(N2CCC[C@H]2c2ccco2)cc1C(F)(F)F`, for which the “% Inhibition” value amounted to 1% and the Z score is given as -0.08.
Consider `O=C(NCCN1CCCCC1)Oc1ccccc1`, for which the “% Inhibition” value was found to be 0% and the Z score is reported as -0.06.
`Cc1cnn(C[C@H](C)NCc2noc(C3CC3)n2)c1`: the “% Inhibition” value is recorded as -7% and the Z score is reported as 0.84.
Take `CC(C)(C(=O)N1C2CCC1C(CO)C2)c1cccnc1` (stereo not drawn): the “% Inhibition” value is given as -11% and the Z score is 1.53.
Take `COc1ccc(-c2c(C(=O)O)nnn2Cc2ccc(OC)c(F)c2)cc1`: the “% Inhibition” value is listed as -11% and the Z score was 1.19.
As to `COc1cccc([C@H]2CN(c3nccnc3C)[C@@H]3C4CCN(CC4)[C@H]23)c1`, the “% Inhibition” value is -13% and the Z score turned out to be 1.18.
The like results for `Cc1cc(CN(C)C(=O)CN2CC3(CCCCC3)CC2=O)on1` were, in that order, -12% and 2.2.
With `O=C1NC2(CCNCC2)C(=O)N1Cc1ccc(Cl)s1`, the “% Inhibition” value is listed as -7% and the Z score was 0.89.
As to `COc1ccccc1[C@H]1CN(C)[C@@H]2C3CCN(CC3)[C@H]12`, the “% Inhibition” value was -6% and the Z score came out at 1.03.
On to `Cc1c(C)[n+]([O-])c([C@@H](c2cc(F)c(F)c(F)c2)C2C(=O)N(C)C(=O)N(C)C2=O)n1Cc1ccccc1`, for which the “% Inhibition” value is reported as 0% and the Z score was -0.04.
`CC(C(O)c1ccc2c(c1)CCCC2)N1CCCCC1` (stereo not drawn): the “% Inhibition” value is -24% and the Z score is given as 3.1.
`O=C(NC1(Cc2ccc(Cl)cc2)CCC1)c1ccc(S(=O)(=O)F)cc1`: the “% Inhibition” value was -5% and the Z score is recorded as 0.51.
The like results for `Cc1cc(Cl)ccc1OCC(=O)N1CCC2(CC1)OCCO2` were, in that order, -20% and 2.65.
As to `Cc1noc(C)c1CN1CCOCC2(CC2)C1`, the “% Inhibition” value was determined as 6% and the Z score is -0.6.
Turning to `Cc1nc(-c2cccs2)cc([C@H]2CN3CC[C@H]2C[C@@H]3CNC(=O)C2CCC2)n1`, the “% Inhibition” value is 29% and the Z score is listed as -3.27.
The like results for `Cc1ccc(OCC(=O)N2C[C@H]3CC[C@@H](C2)N(C)C3)cc1C` were, in that order, -18% and 1.62.
For `CC(=O)c1c(-c2cccc(C(=O)N[C@H]3CN4CCC3CC4)c2)cnn1C`, the “% Inhibition” value was -5% and the Z score is listed as 1.09.
Take `Cc1ccc(S(=O)(=O)NC[C@H]2C[C@@H]3CC[N@]2C[C@@H]3CN2CCC(Cc3ccccc3)CC2)cc1`: the “% Inhibition” value is given as 19% and the Z score is recorded as -2.96.
`CN1C(=O)CO[C@H]2CN(Cc3ccncc3)C[C@H]21`: the “% Inhibition” value was -6% and the Z score was found to be 1.1.
Take `Nc1ccc(-c2ccc([C@@H]3CCCN3)cc2)nc1`: the “% Inhibition” value was 2% and the Z score is given as -0.34.
On the same counts, the results for `O=C(c1c[nH]c2cc(Cl)ccc2c1=O)N1CCC2(CC1)OCCO2` are -9% and 1.17.
For `CC(C)Oc1ccc(C(=O)NCC#CCN(C)C)cc1`, the “% Inhibition” value is given as -9% and the Z score is given as 1.69.
On the same counts, the results for `Cn1nc(C(=O)NC2CCOCC2N2CCCC2)cc1Cl` (stereo not drawn) are -19% and 2.49.
Turning to `CN(Cc1ccc(Br)o1)C(=O)CN1CCCC1=O`, the “% Inhibition” value is reported as -8% and the Z score amounted to 1.3.
Regarding `CCNC(=O)c1ccnc(N2C[C@@H](c3ccccc3)[C@@H]3[C@H]2C2CCN3CC2)c1`, the “% Inhibition” value was -14% and the Z score is listed as 1.33.
